The source of these data is PubChem BioAssay AID1508642 (National Center for Advancing Translational Sciences (NCATS), 2021).

Out of some 43,000 compounds screened, about 200 (0.47%) were called active. Another 12% or so got no clear call; they are omitted. Calls come from the whole dose curve; as a rule, active = well fitted cell-killing curve with a large enough effect; inconclusive = small, poorly fitted or top-dose-only effect, or effect the other way; inactive = flat fitted curve, though single readings scatter. Some of the results follow.
% is set by controls: 0 for no effect and ±100 for the full control effect.

The experiment can be described thus: Cell viability qHTS assay in S16 Pmp22-F2sN cells. Note: nearly all actives have a fitted effect of over 65% in size. The following applies: S16 Pmp22-F2sN Schwann cells (luciferase reporters placed in the Pmp22 gene) viability, CellTiter-Glo, 24 h; series mostly up to 57.5 µM; activity change, negative = cytotoxicity: at the top concentration. The method in brief:
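CellTiter-Glo counter-screen, qHTS, 1536-well. Cells: S16(c9) Pmp22-F2sN, 500-1,000/well in DMEM + 10% FBS. Cpd 23 nL pin transfer, 24 h, 37C/5% CO2. Read: luminescence, CCD imager.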
For the molecule `COc1ccc(-c2cc(OC(=O)c3ccccc3)c3c(C)oc(C)c3c(=O)c2)cc1OC`, the “activity change, negative = cytotoxicity” value is inactive: 2.91%.
Take `CCc1cccc(NC(=O)C(NS(=O)(=O)c2ccc3nc(C)sc3c2)C(C)C)c1` (centres undefined): the “activity change, negative = cytotoxicity” value was inactive: 2.54%.
To `CCOc1ccccc1NC(=O)CCc1c(C)nc2c(c(C)nn2-c2ccccc2)c1C` belongs inactive: 4.22%; to `C#CCSc1nc(-c2ccccc2)c2cc(Cl)ccc2n1`, inactive: 1.53%; to `COc1cccc(NC(=O)Cn2cc(C(=O)c3ccc(F)cc3)c(=O)c3cc(OC)ccc32)c1`, inactive: 11%.
Regarding `Cc1cccc(Cn2cnc3c(oc4ccccc43)c2=O)c1`, the “activity change, negative = cytotoxicity” value was inactive: 11.1%.
Regarding `C=CCc1ccc(OCc2ccc(C(=O)Nc3ccc(NC(C)=O)cc3)o2)c(OC)c1`, the “activity change, negative = cytotoxicity” value is inactive: 23.7%.
Regarding `CCCN(CCC)CCNC(=O)c1sc2nc3n(c(=O)c2c1C)CCCCC3`, the “activity change, negative = cytotoxicity” value was inactive: 25.5%.
As for `COc1ccc(-n2c(C)nc3cc(C(=O)NC4CCCCCC4)ccc32)cc1`, the “activity change, negative = cytotoxicity” value is inactive: -13.7%.
The figure for `Cc1ccc(C)c(N2C(=O)N(C)c3ccccc3S2(=O)=O)c1` is inactive: 19.1%; for `COC(=O)c1c(NC(=O)c2nc(SCc3ccccc3C)ncc2Cl)sc2c1CCCC2` it is inactive: -5.54%; for `CCc1c(C)sc2c1CCN(C(=O)Nc1cc(C)ccc1OC)C2c1ccc(F)cc1` (centres undefined) it is inactive: -1.69%.
To `COc1ccc(-c2c(C)nn3c(N4CCN(c5ccccc5F)CC4)cc(C)nc23)cc1OC` belongs inactive: 14.1%; to `Cc1cc(C)cc(NC(=O)N2CCC(CN3CCc4ccccc4C3)CC2)c1`, inactive: -0.0856%.
The figure for `N#Cc1ccc(NC2=NS(=O)(=O)c3ccccc32)cc1` is inactive: -20.5%; for `COc1ccc(CNC(=O)c2cccc(N3CCCS3(=O)=O)c2)cc1OC` it is inactive: -15.2%.
On to `O=c1cc(-c2ccc(F)cc2)nc(SCc2nc(-c3cccc(C(F)(F)F)c3)no2)[nH]1`, for which the “activity change, negative = cytotoxicity” value was inactive: 1.53%.
The figure for `COc1ccc(NC(=O)CN2C(=O)C3(SCC(=O)N3c3ccccc3)c3ccccc32)cc1Cl` (centres undefined) is inactive: -1.38%; for `CCn1c(=NC(=O)c2ccc(S(=O)(=O)N3CCCC3)cc2)sc2cc(Br)ccc21` it is inactive: 11.8%; for `CCOC(=O)c1c(C)c(-c2ccccc2)n(CC(=O)NC2CCCCCC2)c1C` it is inactive: 13.3%.
Turning to `O=C(Cc1ccccc1)NC1CC(=O)N(c2ccccc2)C1` (centres undefined), the “activity change, negative = cytotoxicity” value was inactive: 1.31%.
The figure for `Cc1cc(-c2nc3ncccc3o2)ccc1NC(=O)COc1ccccc1C` is inactive: -4.99%; for `CCOC(=O)c1ccccc1NC(=O)CSc1ccc(-c2cccs2)nn1` it is inactive: -7.09%.
As to `O=c1c2oc3ccccc3c2n(Cc2cccc(Cl)c2)c(=O)n1Cc1ccco1`, the “activity change, negative = cytotoxicity” value was inactive: -4.33%.
`Cc1ccc2occ(CC(=O)N(Cc3ccc(Cl)cc3)C3CCS(=O)(=O)C3)c2c1` (centres undefined): the “activity change, negative = cytotoxicity” value is inactive: -10.5%.
Regarding `CCN(CC)c1ccc(NC(=O)c2cnc3c(-c4ccccc4)c(C)nn3c2C)c(C)c1`, the “activity change, negative = cytotoxicity” value was inactive: 3.79%.
The figure for `Cc1nnc(N2CCN(C(=O)NC(C)C)CC2)c2nn(-c3ccccc3)c(C)c12` is inactive: 4.05%; for `Cn1cc(S(=O)(=O)c2cccc(Cl)c2)c(=O)c2cc(F)c(N3CCN(c4ccc(F)cc4)CC3)cc21` it is inactive: 8.23%.
Consider `Cc1ccc(-c2noc(CNS(=O)(=O)c3ccc(F)cc3)n2)cc1`, for which the “activity change, negative = cytotoxicity” value is inactive: 2.98%.
To `CCc1ccc(Nc2nn(-c3ccc(OC(F)(F)F)cc3)nc2C(C)=O)cc1` belongs inactive: 11.9%; to `COc1ccccc1N1CCN(C(=O)CN2C(=O)COc3ccc(S(=O)(=O)N4CCCCCC4)cc32)CC1`, inactive: 0.742%; to `Cc1cccc(OCC(=O)Nc2nc3c(s2)CC(C(C)(C)C)CC3)c1C` (centres undefined), inactive: 7.13%.
To `CNC(=O)c1c(NC(=O)c2ccc(S(=O)(=O)N3CCCCC3)cc2)sc2c1CCC2` belongs inactive: 5.43%; to `COc1ccc(-n2ccnc(NCc3ccccc3OC)c2=O)cc1`, inactive: -16.7%.
The figure for `CCOc1ccc(N2CC(NC(=O)/C=C\c3ccc4c(c3)OCO4)CC2=O)cc1` (centres undefined) is inactive: 1.28%; for `CCOC(=O)c1cc2c(=O)n3ccccc3nc2n(C(C)C)c1=NC(=O)c1cc2ccccc2o1` it is inactive: -2.74%; for `COc1ccc(CNC(=O)CN2C(=O)COc3ccc(S(=O)(=O)Nc4ccccc4)cc32)cc1` it is inactive: 7.14%.
On to `O=C(Nc1ccc(F)c(F)c1)c1cc(S(=O)(=O)NC2CCCCCC2)ccc1F`, for which the “activity change, negative = cytotoxicity” value is inactive: -26.4%.
The figure for `CCc1ccc(C(=O)c2cn(CC(=O)NC3CCCCC3)c3nc(C)ccc3c2=O)cc1` is inactive: 7.4%.
Regarding `O=C(c1ccccc1)n1nc(-c2ccccc2)nc1NCc1ccc(F)cc1`, the “activity change, negative = cytotoxicity” value is inactive: 2.83%.
For the molecule `COc1cccc(CNC(=O)c2ccc3c(c2)c(C)c(C)n3Cc2ccccc2)c1OC`, the “activity change, negative = cytotoxicity” value is inactive: -12%.
Regarding `CC(C)c1ccc(NC(=O)CS(=O)(=O)c2cccc3nsnc23)cc1`, the “activity change, negative = cytotoxicity” value is inactive: 0.866%.
`CCCCN(CCCC)CCNC(=O)Cn1nc(C)n2c(cc3sccc32)c1=O`: the “activity change, negative = cytotoxicity” value is inactive: 2.64%.
To `COc1ccc(NS(=O)(=O)c2cc(Br)cc3c2N(C(=O)C2CC2)CC3)cc1OC` belongs inactive: -14.3%; to `O=S(=O)(Nc1cc(F)ccc1F)c1ccc2[nH]c3c(c2c1)CCCC3`, inactive: -1.81%.
The figure for `NS(=O)(=O)c1ccc(CCNc2nccn(-c3cccc(C(F)(F)F)c3)c2=O)cc1` is inactive: -29.5%.
The figure for `CSc1nc2c(c(=O)[nH]1)C(c1cccc(F)c1F)CC(=O)N2` (centres undefined) is inactive: -2.18%.
Take `CC(C)(C)C(=O)Nc1ccc2nc(SCC(=O)N3CCOCC3)sc2c1`: the “activity change, negative = cytotoxicity” value is inactive: 3.89%.
As to `Cc1cc2nc(-c3ccc(OCc4ccccc4Cl)cc3)cc(C(F)(F)F)n2n1`, the “activity change, negative = cytotoxicity” value was inactive: 11.8%.
